Here are results for 153 variants from a collection of fitness landscapes (doi:10.1126/science.1257360).

The chains are these.
B1: PhoQ; a variant is named by its letters at X, in order, P23837 (parent)
chain: MKKLLRLFFPLSLRVRFLLATAAVVLVLSLAYGMVALIGYSVSFDKTTFRLLRGESNLFYTLAKWENNKLHVELPENIDKQSPTMTLIYDENGQLLWAQRDVPWLMKMIQPDWLKSNGFHEIEADVNDTSLLLSGDHSIQQQLQEVREDDDDAEMTHSVAVNVYPATSRMPKLTIVVVDTIPVELKSSYMVWSWFIYVLSANLLLVIPLLWVAAWWSLRPIEALAKEVRELEEHNRELLNPATTRELTSLVRNLNRLLKSERERYDKYRTTLTDLTHSLKTPLXXLQXXLRSLRSEKMSVSDAEPVMLEQISRISQQIGYYLHRASMRGGTLLSRELHPVAPLLDNLTSALNKVYQRKGVNISLDISPEISFVGEQNDFVEVMGNVLDNACKYCLEFVEISARQTDEHLYIVVEDDGPGIPLSKREVIFDRGQRVDTLRPGQGVGLAVAREITEQYEGKIVAGESMLGGARMEVIFGRQHSAPKDE

This is one part of the list.

Variants of B1 are the subject of this assay. Description: enrichment ratio after two sorts for PhoP signalling (ratio (wild type AVST 3.29)); higher = more functional. The settings on record: with PhoP (E. coli).
As to LFRH, the enrichment ratio is no more than 0.25. As to PCMT, the enrichment ratio is no more than 0.25. As for TSPE, the figure is no more than 0.25. Regarding AFRL, the enrichment ratio is no more than 0.25.

For QPTP, the enrichment ratio was no more than 0.25. As for RLSR, the figure is no more than 0.25; as for VTGM, no more than 0.25.

On to IGPR, for which the enrichment ratio is no more than 0.25. As for YALQ, the figure is 4.04; as for KGPE, no more than 0.25; as for DCQV, no more than 0.25. Next, WVFN: no more than 0.25; WEVP: no more than 0.25. In the case of KSVG, the enrichment ratio was no more than 0.25. As to TNEL, the enrichment ratio is no more than 0.25. As for HMDD, the enrichment ratio was no more than 0.25. As for AYKT, the figure is no more than 0.25; as for WCRW, no more than 0.25. Next, NISM: 0.899. Turning to EDHY, the enrichment ratio was no more than 0.25. Next, LMSE: no more than 0.25; KSYY: no more than 0.25.

As for HLCT, the enrichment ratio was no more than 0.25. Next, RFDR: no more than 0.25. Next, DQDG: no more than 0.25; WMRP: no more than 0.25. Next, QWVY: no more than 0.25; YPQH: no more than 0.25; NQDC: no more than 0.25. Take SHNT: the enrichment ratio amounted to 1.57. As for GYPQ, the figure is no more than 0.25; as for FCVL, 0.336; as for YGFD, no more than 0.25. As for VFIQ, the figure is no more than 0.25; as for LVMN, no more than 0.25; as for NYWF, no more than 0.25. On to LTQW, for which the enrichment ratio is no more than 0.25.

For the variant RGSD, the enrichment ratio is no more than 0.25. MKTP: the enrichment ratio was no more than 0.25. Next, VMNM: no more than 0.25; YLWL: no more than 0.25.

For the variant PRNA, the enrichment ratio is no more than 0.25. As for IVED, the figure is no more than 0.25; as for IYAQ, no more than 0.25. For LTLM, the enrichment ratio came to 2.03. For RIPV, the enrichment ratio is no more than 0.25. Next, LKVG: no more than 0.25; DYHW: no more than 0.25. Next, KSAI: no more than 0.25; TPYN: no more than 0.25; SQFI: no more than 0.25. Next, HLPR: no more than 0.25; IHEV: no more than 0.25. Take KTQE: the enrichment ratio was no more than 0.25. As for RDCI, the figure is no more than 0.25; as for QFFM, no more than 0.25. As for IHEG, the figure is no more than 0.25; as for RLTT, no more than 0.25; as for IESN, no more than 0.25. In the case of VLSE, the enrichment ratio was no more than 0.25. With DSAW, the enrichment ratio is no more than 0.25.

For the variant AQRY, the enrichment ratio was no more than 0.25.

As for NLRG, the enrichment ratio is no more than 0.25. Next, FLQT: no more than 0.25; MYEG: no more than 0.25; AIPQ: no more than 0.25. Next, QSFR: 0.584; IIDT: no more than 0.25.

As for DKLI, the enrichment ratio was no more than 0.25.

For RRPS, the enrichment ratio is no more than 0.25.

Take MEHY: the enrichment ratio was no more than 0.25.

Regarding QYAM, the enrichment ratio is no more than 0.25. NISD: the enrichment ratio is no more than 0.25. For the variant WRTY, the enrichment ratio is no more than 0.25.

For the variant TYSL, the enrichment ratio worked out at 3. Next, KMDY: no more than 0.25; DKWM: no more than 0.25; LFVQ: no more than 0.25. In the case of KIDF, the enrichment ratio was no more than 0.25. As for YWYQ, the figure is no more than 0.25; as for VKVI, no more than 0.25; as for GELH, 11.9. Next, TGCV: 7.81. Consider TLCE, for which the enrichment ratio was no more than 0.25.

For CHPC, the enrichment ratio was no more than 0.25. For the variant KRWS, the enrichment ratio was no more than 0.25.

SCPH: the enrichment ratio is no more than 0.25. For the variant NHLS, the enrichment ratio is no more than 0.25. Consider RLLM, for which the enrichment ratio was no more than 0.25. Next, MERH: no more than 0.25; ANDG: no more than 0.25. Next, ETCA: no more than 0.25; LKCY: no more than 0.25; HSDN: no more than 0.25. As for REMT, the figure is no more than 0.25; as for VENT, no more than 0.25. For HPMF, the enrichment ratio is no more than 0.25.

On to ACRN, for which the enrichment ratio is no more than 0.25.

With MEVE, the enrichment ratio is no more than 0.25. Next, PIML: no more than 0.25; MGQC: no more than 0.25; HFPR: no more than 0.25. Next, RRSN: no more than 0.25. Next, FYWW: no more than 0.25; TPQQ: no more than 0.25. Take NRAW: the enrichment ratio is no more than 0.25. As for LRFS, the figure is no more than 0.25; as for NLAQ, no more than 0.25; as for RQDD, no more than 0.25. Regarding KQGN, the enrichment ratio was no more than 0.25.

CFSR: the enrichment ratio is no more than 0.25.

With QKFA, the enrichment ratio was no more than 0.25. As for LDSQ, the figure is no more than 0.25. Next, KLMA: no more than 0.25. For the variant HMMR, the enrichment ratio is no more than 0.25. As for EFFW, the figure is no more than 0.25; as for SEET, 6.48; as for KSSD, no more than 0.25.

As for LILD, the enrichment ratio is no more than 0.25. In the case of NAKE, the enrichment ratio is no more than 0.25. As for QNVL, the enrichment ratio is no more than 0.25. For the variant HETY, the enrichment ratio is no more than 0.25. WGYS: the enrichment ratio was no more than 0.25.

For the variant LIVR, the enrichment ratio is no more than 0.25.

For MVSG, the enrichment ratio is 0.389. Consider VFCC, for which the enrichment ratio is no more than 0.25. Next, YRGN: no more than 0.25; CVCM: no more than 0.25.

Turning to EDPH, the enrichment ratio was no more than 0.25. Next, LDIY: no more than 0.25; QMNP: no more than 0.25. Consider EPCL, for which the enrichment ratio is no more than 0.25. For VFTL, the enrichment ratio was no more than 0.25. Next, DLNQ: no more than 0.25; LYCK: no more than 0.25.

In the case of DFML, the enrichment ratio is no more than 0.25. Regarding HDKP, the enrichment ratio is no more than 0.25. HNRY: the enrichment ratio is no more than 0.25. Turning to GRSW, the enrichment ratio is no more than 0.25. As for GIHF, the figure is no more than 0.25. As for IVTC, the figure is no more than 0.25. On to YLLQ, for which the enrichment ratio is no more than 0.25. DSML: the enrichment ratio is no more than 0.25.

As to DQFV, the enrichment ratio is no more than 0.25. Turning to FHHW, the enrichment ratio was no more than 0.25. Next, REFI: no more than 0.25. In the case of GKAK, the enrichment ratio was no more than 0.25.

Take NGQH: the enrichment ratio was no more than 0.25.

For VQPK, the enrichment ratio is no more than 0.25.

For the variant RAYW, the enrichment ratio was no more than 0.25. Regarding ISWL, the enrichment ratio was no more than 0.25. Next, EDYD: no more than 0.25; QALD: no more than 0.25.
